The supplement of paper PMC11876631
Changes are numbered by the printed parent chain. In names and notes the source's numbering stands. ± gives the standard deviation of the averaged measurements. Laboratory Escherichia coli strains with one amino-acid change in an essential protein, pooled on minimal glucose agar with carbenicillin or gentamicin at twice the control MIC (plus kanamycin and chloramphenicol for the plasmids), 48 h. Fold change of barcode share against drug-free plates; higher = less susceptible. Active = above 20 in both replicates (the paper's putatively resistant). '<' = one read or none on drug, '>' = one read or none on a drug-free plate. Shares are relative, so most strains fall below 1 when a few take over. Listed are strains with at least 15 reads on both drug-free plates, and hits; most hits rest on fewer reference reads. Replicate rank correlation about 0.5. Edits are read from barcodes.

Target: Escherichia coli (laboratory strain)
Assay: barcode share on antibiotic plates over drug-free plates; higher = less susceptible
Procedure: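 A pool of E. coli strains, each edited to carry one amino-acid change in an essential protein, was grown for 48 h on minimal glucose agar with or without antibiotic; strain barcodes were sequenced; mean of two replicates.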

[1] = antibiotic: carbenicillin, 2× MIC (3.1 µg/mL)
[2] = antibiotic: gentamicin, 2× MIC (MIC 0.45 µg/mL)

B1: accA M114Q (protein)
chain: MSLNFLDFEQPIAELEAKIDSLTAVSRQDEKLDINIDEEVHRLREKSVELTRKIFADLGAWQIAQLARHPQRPYTLDYVRLAFDEFDELAGDRAYADDKAIVGGIARLDGRPVQIIGHQKGRETKEKIRRNFGMPAPEGYRKALRLMQMAERFKMPIITFIDTPGAYPGVGAEERGQSEAIARNLREMSRLGVPVVCTVIGEGGSGGALAIGVGDKVNMLQYSTYSVISPEGCASILWKSADKAPLAAEAMGIIAPRLKELKLIDSIIPEPLGGAHRNPEAMAASLKAQLLADLADLDVLSTEDLKNRRYQRLMSYGYA
fold change of barcode share [1]: 0.331 ± 0.13 | fold change of barcode share [2]: < 0.00375

B2: mreB F85Q (protein)
chain: MLKKFRGMFSNDLSIDLGTANTLIYVKGQGIVLNEPSVVAIRQDRAGSPKSVAAVGHDAKQMLGRTPGNIAAIRPMKDGVIADFQVTEKMLQHFIKQVHSNSFMRPSPRVLVCVPVGATQVERRAIRESAQGAGAREVFLIEEPMAAAIGAGLPVSEATGSMVVDIGGGTTEVAVISLNGVVYSSSVRIGGDRFDEAIINYVRRNYGSLIGEATAERIKHEIGSAYPGDEVREIEVRGRNLAEGVPRGFTLNSNEILEALQEPLTGIVSAVMVALEQCPPELASDISERGMVLTGGGALLRNLDRLLMEETGIPVVVAEDPLTCVARGGGKALEMIDMHGGDLFSEE
fold change of barcode share [1]: 0.42 ± 0.0056 | fold change of barcode share [2]: < 0.00495

B3: mreB F85D (protein)
chain: B2 chain with Q85D
fold change of barcode share [1]: 0.281 ± 0.07 | fold change of barcode share [2]: 0.0892 ± 0.12

B4: mreB V268Q (protein)
chain: B2 chain with Q85F, V268Q
fold change of barcode share [1]: 0.279 ± 0.044 | fold change of barcode share [2]: 0.00361 ± 0.0011

B5: mreB V268A (protein)
chain: B2 chain with Q85F, V268A
fold change of barcode share [1]: 0.249 ± 0.087 | fold change of barcode share [2]: < 0.00271

B6: mreB V164A (protein)
chain: B2 chain with Q85F, V164A
fold change of barcode share [1]: 0.21 ± 0.12 | fold change of barcode share [2]: < 0.0144

B7: mreB V268D (protein)
chain: B2 chain with Q85F, V268D
fold change of barcode share [1]: 0.18 ± 0.1 | fold change of barcode share [2]: < 0.00542

B8: mreB I176A (protein)
chain: B2 chain with Q85F, I176A
fold change of barcode share [1]: 0.116 ± 0.062 | fold change of barcode share [2]: 0.0122 ± 0.0086

B9: mreB V164Q (protein)
chain: B2 chain with Q85F, V164Q
fold change of barcode share [1]: 0.213 ± 0.035 | fold change of barcode share [2]: < 0.00859

B10: mreB V271A (protein)
chain: B2 chain with Q85F, V271A
fold change of barcode share [1]: 0.155 ± 0.024 | fold change of barcode share [2]: < 0.00375

B11: mreB V268W (protein)
chain: B2 chain with Q85F, V268W
fold change of barcode share [1]: 0.387 ± 0.2 | fold change of barcode share [2]: 0.00566 ± 0.0055

B12: mreB V271Q (protein)
chain: B2 chain with Q85F, V271Q
fold change of barcode share [1]: 0.381 ± 0.12 | fold change of barcode share [2]: 0.00386 ± 0.0033

B13: mreB F85P (protein)
chain: B2 chain with Q85P
fold change of barcode share [1]: 0.176 ± 0.13
